{
  "source": "the supplement of paper PMC8728848",
  "binders": {"B1": {"name": "LFA (Limax flavus) (protein)", "chain": "MSVLFLAASFLLLASFELVAAQGCPRQDPGDWIVIQRRLNADVNFYRGWADYKHGFGDLRCNFWLGNEKIHQLTSHGRYKLRVEFTFNNKSYFAEYSTFKILGEADKYKLQVGGYSGNAGDALTFHNGMAFSTNDRDNDADSIDCAKVYHGAWWYKTCHESNLNGKWGSKKYGEGLNWKAKTTFTATATSSLLKIKALK"}},
  "test_in_all_cases": "glycan array binding signal (z-score within array); higher = stronger binding",
  "details_in_all_cases": "glycan notation: IUPAC condensed, linker removed",
  "key": {"[1]": {"biological_target": "Neu5Ac(a2-3)Gal(b1-4)GlcNAc(b1-3)[Neu5Ac(a2-3)Gal(b1-4)GlcNAc(b1-6)]GalNAc", "how_it_was_run": "(§1)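 Columns mapping to the same glycan were averaged after glycan names were converted to IUPAC-condensed notation. The data come from 3228 arrays in the Consortium for Functional Glycomics database, limited to those with an available protein sequence. Binding is reported as a within-array Z-score averaged across arrays of one protein sequence and across linkers.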"}, "[2]": {"biological_target": "Neu5Ac(a2-3)Gal(b1-4)GlcNAc(b1-6)GalNAc", "how_it_was_run": "as §1"}, "[3]": {"biological_target": "Neu5Ac(a2-3)Gal(b1-4)GlcNAc(b1-6)[Gal(b1-3)]GalNAc", "how_it_was_run": "as §1"}, "[4]": {"biological_target": "Neu5Ac(a2-3)Gal(b1-4)GlcNAc(b1-6)[Neu5Ac(a2-3)Gal(b1-3)]GalNAc", "how_it_was_run": "as §1"}, "[5]": {"biological_target": "Neu5Ac(a2-3)Gal(b1-4)GlcNAc6S", "how_it_was_run": "as §1"}, "[6]": {"biological_target": "Neu5Ac(a2-3)Gal(b1-4)[Fuc(a1-3)]GlcNAc", "how_it_was_run": "as §1"}, "[7]": {"biological_target": "Neu5Ac(a2-3)Gal(b1-4)[Fuc(a1-3)]GlcNAc(b1-2)Man", "how_it_was_run": "as §1"}, "[8]": {"biological_target": "Neu5Ac(a2-3)Gal(b1-4)[Fuc(a1-3)]GlcNAc(b1-3)Gal", "how_it_was_run": "as §1"}, "[9]": {"biological_target": "Neu5Ac(a2-3)Gal(b1-4)[Fuc(a1-3)]GlcNAc(b1-3)Gal(b1-4)GlcNAc", "how_it_was_run": "as §1"}, "[10]": {"biological_target": "Neu5Ac(a2-3)Gal(b1-4)[Fuc(a1-3)]GlcNAc(b1-3)Gal(b1-4)[Fuc(a1-3)]GlcNAc(b1-3)Gal(b1-4)[Fuc(a1-3)]GlcNAc", "how_it_was_run": "as §1"}, "[11]": {"biological_target": "Neu5Ac(a2-3)Gal(b1-4)[Fuc(a1-3)]GlcNAc(b1-3)GalNAc", "how_it_was_run": "as §1"}, "[12]": {"biological_target": "Neu5Ac(a2-3)Gal(b1-4)[Fuc(a1-3)]GlcNAc(b1-6)[Gal(b1-3)]GalNAc", "how_it_was_run": "as §1"}, "[13]": {"biological_target": "Neu5Ac(a2-3)Gal(b1-4)[Fuc(a1-3)]GlcNAc(b1-6)[Neu5Ac(a2-3)Gal(b1-3)]GalNAc", "how_it_was_run": "as §1"}, "[14]": {"biological_target": "Neu5Ac(a2-3)Gal(b1-4)[Fuc(a1-3)]GlcNAc6S", "how_it_was_run": "as §1"}, "[15]": {"biological_target": "Neu5Ac(a2-3)Gal6S(b1-4)GlcNAc", "how_it_was_run": "as §1"}, "[16]": {"biological_target": "Neu5Ac(a2-3)Gal6S(b1-4)[Fuc(a1-3)]GlcNAc", "how_it_was_run": "as §1"}, "[17]": {"biological_target": "Neu5Ac(a2-3)GalNAc", "how_it_was_run": "as §1"}, "[18]": {"biological_target": "Neu5Ac(a2-3)GalNAc(b1-4)GlcNAc", "how_it_was_run": "as §1"}, "[19]": {"biological_target": "Neu5Ac(a2-3)[GalNAc(b1-4)]Gal(b1-4)Glc", "how_it_was_run": "as §1"}, "[20]": {"biological_target": "Neu5Ac(a2-3)[GalNAc(b1-4)]Gal(b1-4)GlcNAc", "how_it_was_run": "as §1"}, "[21]": {"biological_target": "Neu5Ac(a2-3)[GalNAc(b1-4)]Gal(b1-4)GlcNAc(b1-3)GalNAc", "how_it_was_run": "as §1"}, "[22]": {"biological_target": "Neu5Ac(a2-3)[Neu5Ac(a2-6)]GalNAc", "how_it_was_run": "as §1"}, "[23]": {"biological_target": "Neu5Ac(a2-6)Gal", "how_it_was_run": "as §1"}, "[24]": {"biological_target": "Neu5Ac(a2-6)Gal(b1-3)GlcNAc(b1-3)[Gal(b1-4)GlcNAc(b1-6)]Gal(b1-4)Glc", "how_it_was_run": "as §1"}, "[25]": {"biological_target": "Neu5Ac(a2-6)Gal(b1-4)Glc", "how_it_was_run": "as §1"}, "[26]": {"biological_target": "Neu5Ac(a2-6)Gal(b1-4)GlcNAc", "how_it_was_run": "as §1"}, "[27]": {"biological_target": "Neu5Ac(a2-6)Gal(b1-4)GlcNAc(b1-2)Man", "how_it_was_run": "as §1"}, "[28]": {"biological_target": "Neu5Ac(a2-6)Gal(b1-4)GlcNAc(b1-2)Man(a1-3)Man(b1-4)GlcNAc(b1-4)GlcNAc", "how_it_was_run": "as §1"}, "[29]": {"biological_target": "Neu5Ac(a2-6)Gal(b1-4)GlcNAc(b1-2)Man(a1-3)[Gal(b1-4)GlcNAc(b1-2)Man(a1-6)]Man(b1-4)GlcNAc(b1-4)GlcNAc", "how_it_was_run": "as §1"}, "[30]": {"biological_target": "Neu5Ac(a2-6)Gal(b1-4)GlcNAc(b1-2)Man(a1-3)[GlcNAc(b1-2)Man(a1-6)]Man(b1-4)GlcNAc(b1-4)GlcNAc", "how_it_was_run": "as §1"}, "[31]": {"biological_target": "Neu5Ac(a2-6)Gal(b1-4)GlcNAc(b1-2)Man(a1-3)[GlcNAc(b1-4)][Neu5Ac(a2-6)Gal(b1-4)GlcNAc(b1-2)Man(a1-6)]Man(b1-4)GlcNAc(b1-4)GlcNAc", "how_it_was_run": "as §1"}},
  "note": "Some of the results follow.",
  "data": [
    {"binder": "B1", "values": [
      {"measurement": "glycan array binding signal (z-score)", "setting": "[1]", "result": -0.317},
      {"measurement": "glycan array binding signal (z-score)", "setting": "[2]", "result": -0.274},
      {"measurement": "glycan array binding signal (z-score)", "setting": "[3]", "result": -0.238},
      {"measurement": "glycan array binding signal (z-score)", "setting": "[4]", "result": -0.305},
      {"measurement": "glycan array binding signal (z-score)", "setting": "[5]", "result": -0.046},
      {"measurement": "glycan array binding signal (z-score)", "setting": "[6]", "result": -0.015},
      {"measurement": "glycan array binding signal (z-score)", "setting": "[7]", "result": -0.283},
      {"measurement": "glycan array binding signal (z-score)", "setting": "[8]", "result": 0.297},
      {"measurement": "glycan array binding signal (z-score)", "setting": "[9]", "result": -0.178},
      {"measurement": "glycan array binding signal (z-score)", "setting": "[10]", "result": 0.189},
      {"measurement": "glycan array binding signal (z-score)", "setting": "[11]", "result": -0.146},
      {"measurement": "glycan array binding signal (z-score)", "setting": "[12]", "result": 0.028},
      {"measurement": "glycan array binding signal (z-score)", "setting": "[13]", "result": -0.142},
      {"measurement": "glycan array binding signal (z-score)", "setting": "[14]", "result": -0.227},
      {"measurement": "glycan array binding signal (z-score)", "setting": "[15]", "result": -0.019},
      {"measurement": "glycan array binding signal (z-score)", "setting": "[16]", "result": -0.35},
      {"measurement": "glycan array binding signal (z-score)", "setting": "[17]", "result": -0.295},
      {"measurement": "glycan array binding signal (z-score)", "setting": "[18]", "result": -0.338},
      {"measurement": "glycan array binding signal (z-score)", "setting": "[19]", "result": 0.025},
      {"measurement": "glycan array binding signal (z-score)", "setting": "[20]", "result": 0.019},
      {"measurement": "glycan array binding signal (z-score)", "setting": "[21]", "result": 1.88},
      {"measurement": "glycan array binding signal (z-score)", "setting": "[22]", "result": 1.01},
      {"measurement": "glycan array binding signal (z-score)", "setting": "[23]", "result": -0.188},
      {"measurement": "glycan array binding signal (z-score)", "setting": "[24]", "result": -0.28},
      {"measurement": "glycan array binding signal (z-score)", "setting": "[25]", "result": -0.166},
      {"measurement": "glycan array binding signal (z-score)", "setting": "[26]", "result": -0.176},
      {"measurement": "glycan array binding signal (z-score)", "setting": "[27]", "result": -0.245},
      {"measurement": "glycan array binding signal (z-score)", "setting": "[28]", "result": -0.223},
      {"measurement": "glycan array binding signal (z-score)", "setting": "[29]", "result": -0.238},
      {"measurement": "glycan array binding signal (z-score)", "setting": "[30]", "result": -0.166},
      {"measurement": "glycan array binding signal (z-score)", "setting": "[31]", "result": -0.132}
    ]}
  ]
}
